{"source": "PubChem BioAssay AID504832", "about": "(National Center for Advancing Translational Sciences (NCATS), 2011)", "note": "Values joined by “and” are separate entries in the source; they are usually repeats but may differ in a detail not shown here. Equal values may be shown once. The campaign covered roughly 310,000 compounds. About 18,000 (5.8%) were called active. This list was built around the results that the source calls inconclusive (neither active nor inactive); the mix of calls is not that of the screen. Calls come from the whole dose curve; as a rule, active = well fitted inhibition curve with a large enough effect; inconclusive = small, poorly fitted or top-dose-only effect, or another doubt; inactive = no such curve, though single readings can be large or run the other way. A potency beside an inconclusive call is a rough fit, not a confirmed value. % is set by controls: 0 for no effect and ±100 for the full control effect; potency is the fitted concentration of half-maximal effect; tags give direction and shape of the fitted curve."}
{"experiment": "Primary qHTS for delayed death inhibitors of the malarial parasite plastid, 48 hour incubation", "conditions": "P. falciparum luciferase growth in erythrocytes; series mostly up to 28.7 µM; activity change, negative = inhibition: at the top concentration", "procedure,_shortened": "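Cell-based growth assay: transgenic P. falciparum expressing firefly luciferase, cultured in red cells within RPMI 1640 containing 0.5% w/v Albumax, 24 mM bicarbonate and gentamycin. A drop in luciferase activity indicates inhibition.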"}
{"smiles": "CC1(C)Cc2ccccc2/C(=C/C(=O)c2ccccc2)N1", "Potency": "inconclusive: 7.38 µM [inhibitor, partial curve, poor fit]"}
{"smiles": "CC[C@@]12C(=O)N(c3ccc(C)cc3)C(=O)N1[C@H](c1ccc(Br)cc1)[C@@H]1C(=O)N(C(C)(C)C)C(=O)[C@@H]12", "Potency": "inconclusive: 11.7 µM [inhibitor, single point]"}
{"smiles": "Clc1cccc(Cl)c1CSc1nnc(-c2ccncc2)s1", "Potency": "active: 2.62 µM"}
{"smiles": "Oc1c(I)cc(I)c2cccnc12", "Potency": "inactive and inconclusive: 13.5 µM [inhibitor, single point]"}
{"smiles": "CCN1CCN(CCCN(Cc2ccco2)C(=S)Nc2cc(Cl)ccc2C)CC1", "Potency": "inconclusive: 13.1 µM [inhibitor, partial curve, poor fit]"}
{"smiles": "O=c1[nH]c(=O)n(Cc2ccccc2)c2c1C(C(F)(F)F)(C(F)(F)F)N=C(c1ccco1)N2", "Potency": "inconclusive: 18.5 µM [inhibitor, single point]"}
{"smiles": "CCc1nnc(NC(=O)CN2CCN(c3nc(-c4ccccc4)cs3)CC2)s1", "Potency": "active: 10.4 µM"}
{"smiles": "NNc1nc(-c2ccccc2Cl)nc2ccccc12", "activity change, negative = inhibition": "inactive: -2.59%"}
{"smiles": "O=C(Cn1ccc(NC(=O)OCc2ccccc2)nc1=O)NCC1CCCO1", "note": "(stereo not given)", "activity change, negative = inhibition": "inactive: 12.3%"}
{"smiles": "CCOC(=O)C1CCN(c2c(C(=O)c3ccccc3)cnc3ccc(Cl)cc23)CC1", "Potency": "inconclusive: 18.5 µM [inhibitor, single point]"}
{"smiles": "O=C(COC(=O)CNS(=O)(=O)c1ccc(F)c(F)c1F)NC1CC1", "activity change, negative = inhibition": "inactive: -0.184%"}
{"smiles": "CCOc1ccc(/C=C/C2=CC(C)(C)NC(=S)N2)cc1", "Potency": "inconclusive: 0.0047 µM [inhibitor, full curve, poor fit]"}
{"smiles": "COCc1cc(=O)n2[nH]c(C(C)(C)C)cc2n1", "Potency": "inconclusive: 0.0928 µM [inhibitor, full curve, poor fit]"}
{"smiles": "O=C(NCc1ccc2c(c1)OCO2)c1nn2cccnc2c1Cl", "Potency": "inconclusive: 11.7 µM [inhibitor, single point]"}
{"smiles": "COc1ccc(NCc2ccsc2)cc1", "Potency": "inconclusive: 0.0657 µM [inhibitor, full curve, poor fit]"}
{"smiles": "CCc1c(C)c(C#N)c2nc3ccccc3n2c1NCc1ccccn1", "Potency": "inconclusive: 1.47 µM [inhibitor, full curve]"}
{"smiles": "O=S(=O)(NCCc1cn2ccccc2n1)c1cccs1", "activity change, negative = inhibition": "inactive: 16.9%"}
{"smiles": "CC(C)(C)CC(=O)N1CCN(c2ccc(S(=O)(=O)N3CCOCC3)cc2[N+](=O)[O-])CC1", "Potency": "inconclusive: 18.5 µM [inhibitor, single point]"}
{"smiles": "CN(C)S(=O)(=O)c1ccc(S(=O)(=O)N(Cc2ccco2)Cc2ccccc2Cl)cc1", "Potency": "inconclusive: 11.7 µM [inhibitor, single point]"}
{"smiles": "Cc1cc(-c2ccccc2)n(-c2ccc(C(=O)N3CCN(c4ncccn4)CC3)cc2)n1", "Potency": "inconclusive: 4.15 µM [inhibitor, single point]"}
{"smiles": "COCCN(C(=S)Nc1ccc(C)cc1)C(C)c1cccnc1", "note": "(stereo not given)", "Potency": "inconclusive: 8.28 µM [inhibitor, single point]"}
{"smiles": "O=C(NC1CCN(S(=O)(=O)c2ccccc2F)CC1)c1ccco1", "activity change, negative = inhibition": "inactive: 16.2%"}
{"smiles": "O=C(c1ccc(Cl)c(S(=O)(=O)N2CCCCCC2)c1)N1CCCC(C(F)(F)F)C1", "note": "(stereo not given)", "Potency": "inconclusive: 10.4 µM [inhibitor, single point]"}
{"smiles": "CCCCCC(=O)Nc1nc(C)c(-c2csc(Nc3cc(Cl)ccc3OC)n2)s1", "Potency": "active: 7.38 µM"}
{"smiles": "O=C(COc1ccc(C(=S)N2CCOCC2)cc1)N1CCOCC1", "activity change, negative = inhibition": "inactive: 26.3%"}
{"smiles": "Nc1nc(N)nc(-c2ccccc2)n1", "activity change, negative = inhibition": "inactive: 12.3%"}
{"smiles": "CCNc1nc(NCC)nc(C(=O)NN)n1", "activity change, negative = inhibition": "inactive: -14.9%"}
{"smiles": "COc1ccc2cc(C(=O)Nc3ccc(O)cc3)sc(=O)c2c1OC", "Potency": "inconclusive: 5.22 µM [inhibitor, partial curve, poor fit]"}
{"smiles": "CCOC(=O)CC(Nc1nc(N2CCOCC2)nc(N2CCOCC2)n1)c1ccccc1Cl", "note": "(stereo not given)", "Potency": "inconclusive: 2.62 µM [inhibitor, full curve]"}
{"smiles": "Cc1cc(OCC(=O)Nc2ccc(CN3CCCCC3)cc2)ccc1Cl", "Potency": "inconclusive: 10.4 µM [inhibitor, single point]"}
{"smiles": "COc1cc(NC(=S)NC(=O)c2ccc(C(C)(C)C)cc2)ccc1NC(=O)c1cccs1", "Potency": "inconclusive: 4.15 µM [inhibitor, single point]"}
{"smiles": "CC(NC(=O)CNC(=O)c1cccc(Cl)c1)c1ccccc1", "note": "(stereo not given)", "activity change, negative = inhibition": "inactive: 16.6%"}
{"smiles": "O=c1n(-c2ccccc2)c(=O)n2n1CC(O)C2", "activity change, negative = inhibition": "inactive: -0.785%"}
{"smiles": "COC(=O)Nc1ccc(S(=O)(=O)N2CCC(C(=O)NC3CCCCC3)CC2)cc1", "Potency": "inconclusive: 8.28 µM [inhibitor, partial curve]"}
{"smiles": "COc1ccc(C2Nc3ccccc3C(=O)N2c2ccc(C)cc2)cc1Cn1nnc2ccccc21", "note": "(stereo not given)", "Potency": "active: 13.1 µM"}
{"smiles": "COc1ccc(CN2C(=O)CSC2c2ccccn2)cc1", "note": "(stereo not given)", "activity change, negative = inhibition": "inactive: 3.46%"}
{"smiles": "Cc1ccc(NC(=O)C(C)c2ccc([N+](=O)[O-])cc2)cc1Cl", "note": "(stereo not given)", "Potency": "inconclusive: 10.4 µM [inhibitor, single point]"}
{"smiles": "CCOc1ccc(OCC)c(-c2c(=O)n(OCc3ccccc3C(=O)OC)c3ccccc3[n+]2[O-])c1", "Potency": "inconclusive: 18.5 µM [inhibitor, single point]"}
{"smiles": "CCN(CC)S(=O)(=O)c1ccc(Cl)c(NC(=O)COC(=O)c2ccc(O)cc2)c1", "Potency": "inconclusive: 5.86 µM [inhibitor, partial curve, poor fit]"}
{"smiles": "CSc1ccc(S(=O)(=O)NCC(=O)OCC(=O)N2CCCCC2C)cc1[N+](=O)[O-]", "note": "(stereo not given)", "Potency": "inconclusive: 9.28 µM [inhibitor, single point]"}
{"smiles": "Cc1cc(C)n2nc(SCC(=O)c3cc(C)n(-c4cc(C)on4)c3C)nc2n1", "Potency": "inconclusive: 0.522 µM [inhibitor, full curve, poor fit]"}
{"smiles": "COc1ccccc1-c1cc(C(F)(F)F)nc(S(=O)(=O)CCCC(=O)N2CCCCC2C)n1", "note": "(stereo not given)", "Potency": "inconclusive: 0.0185 µM [inhibitor, full curve, poor fit]"}
{"smiles": "O=C(CN1C(=O)c2cccnc2Oc2ccc(Cl)cc21)N1CCCC1", "activity change, negative = inhibition": "inactive: -0.0439%"}
{"smiles": "COC(=O)c1cc(-c2c(C)oc3cc(OC(C)C)ccc3c2=O)c(C)o1", "Potency": "inconclusive: 10.4 µM [inhibitor, single point]"}
{"smiles": "O=C(COC(=O)/C=C/c1cccc(C(F)(F)F)c1)NC1CCCCCC1", "activity change, negative = inhibition": "inactive: 2.72%"}
{"smiles": "O=[N+]([O-])c1ccc(Oc2cccc3cccnc23)c([N+](=O)[O-])c1", "Potency": "active: 10.4 µM"}
{"smiles": "Cc1c(Cl)cccc1NC(=O)c1ccc(-n2ccnc2)nc1", "Potency": "inconclusive: 18.5 µM [inhibitor, single point]"}
{"smiles": "Cc1ccc(O)c(C(=O)c2cnc3c(c2)c(-c2ccc(F)cc2)c(C#N)c(=O)n3C)c1", "Potency": "inconclusive: 11.7 µM [inhibitor, partial curve, poor fit]"}
{"smiles": "Cc1ccc(-c2csc(NC(=O)CCNC(=O)c3ccco3)n2)cc1", "Potency": "inconclusive: 14.7 µM [inhibitor, partial curve]"}
{"smiles": "COc1cc(OC)cc(C(=O)NNC(=O)c2cc3c(s2)CCCC3)c1", "activity change, negative = inhibition": "inactive: 60.2%"}
{"smiles": "COc1cccc(CNC(=O)CCCC(=O)Nc2cccc([N+](=O)[O-])c2)c1", "activity change, negative = inhibition": "inactive: -0.0338%"}
{"smiles": "CC(C)N1CC=C(c2c[nH]c3ccccc23)CC1", "Potency": "active: 1.04 µM"}
{"smiles": "Cc1cc(NC(=O)C(C)SCC(=O)N(C)CC(=O)Nc2ccccc2Br)no1", "note": "(stereo not given)", "activity change, negative = inhibition": "inactive: -1.42%"}
{"smiles": "O=C(O)c1c(-c2ccccc2)oc2ccc(O)cc12", "activity change, negative = inhibition": "inactive: -2.05%"}
{"smiles": "Cc1ccc(C(C(=O)NC2CCCCC2)N(C(=O)Cc2c[nH]c3ccccc23)c2ccccc2C)o1", "note": "(stereo not given)", "Potency": "inconclusive: 10.4 µM [inhibitor, single point]"}
{"smiles": "COc1cc(C(=O)OCc2ccc(C)cc2)cc(NC(=O)c2cccs2)c1OC", "Potency": "active: 8.28 µM"}
{"smiles": "Cc1ccccc1OCCCC(=O)Nc1ccc2c(c1)OCO2", "activity change, negative = inhibition": "inactive: 7.6%"}
{"smiles": "COc1ccc(NC(=O)CN(C)C(=O)c2ccc(-c3cccc(C(F)(F)F)c3)o2)cc1", "Potency": "inconclusive: 0.465 µM [inhibitor, full curve]"}
{"smiles": "CC(C)(C)OC(=O)N[C@@H](C(=O)OC(C)(C)C)c1ccc(C(F)(F)F)cc1", "activity change, negative = inhibition": "inactive: -16.8%"}
{"smiles": "O=C1/C(=C/c2ccccc2)NC(=S)N1C(c1ccccc1)c1ccccc1", "Potency": "active: 11.7 µM"}
{"smiles": "CCOc1ccc(CCNC(=O)COC(=O)c2cccnc2Cl)cc1OCC", "Potency": "inconclusive: 18.5 µM [inhibitor, single point]"}
{"smiles": "COc1cc(C(=O)NCC2CCCO2)ccc1OCc1ccccc1Cl", "note": "(stereo not given)", "Potency": "inconclusive: 14.7 µM [inhibitor, partial curve, poor fit]"}
{"smiles": "COc1ccc(CN(Cc2cccn2C)S(=O)(=O)c2cccc(C(F)(F)F)c2)cc1", "Potency": "active: 11.7 µM"}
{"smiles": "CCOC(=O)C1(Cc2ccccc2)CCCN(C(=O)C=C(C)C)C1", "note": "(stereo not given)", "Potency": "inconclusive: 14.7 µM [inhibitor, single point]"}
{"smiles": "Cc1[nH]c(=S)c(C#N)c(-c2ccccc2)c1C(=O)Nc1ccccc1", "activity change, negative = inhibition": "inactive: 9.11%"}
{"smiles": "COc1ccc(-c2cn(CCC(=O)NCc3ccc(C)cc3)c(CCN)n2)cc1", "Potency": "inconclusive: 18.5 µM [inhibitor, single point]"}
{"smiles": "COc1ccc(NC(=O)CN(C)C(=O)C2=NN(c3ccccc3)C(=O)CC2)cc1", "Potency": "inconclusive: 3.29 µM [inhibitor, partial curve, poor fit]"}
{"smiles": "Cc1csc2nc(O)c(C(=O)NCc3ccc4c(c3)OCO4)c(=O)n12", "Potency": "inconclusive: 18.5 µM [inhibitor, partial curve, poor fit]"}
{"smiles": "O=C(CCCn1cc([N+](=O)[O-])cn1)NCc1ccccc1", "Potency": "inconclusive: 11.7 µM [inhibitor, single point]"}
{"smiles": "CC(=O)NCCc1ccc(S(=O)(=O)N2CCN(c3nc(-c4ccccc4)c(C)s3)CC2)cc1", "Potency": "active: 3.7 µM"}
